US20180169183A1 (KAHR MEDICAL, published 2018)

Target: T1, TRAIL receptor DR5 on Jurkat cells (human, UniProt O14763 56-440)
T1 construct: whole, on cells; also called DR5 receptor; TRAIL receptors
Assay: flow cytometry at 4 C, loss of anti-DR5 staining on Jurkat cells

B1: Fn14-TRAIL Fusion Protein (other)
chain: [left out - about 60 residues]GPQRVAAHITGTRGRSNTLSSPNSKNEKALGRKINSWESSRSGHSFLSNLHLRNGELVIHEKGFYYIYSQTYFRFQEEIKENTKNDKQMVQYIYKYTSYPDPILLMKSARNSCWSKDAEYGLYSIYQGGIFELKENDRIFVSVTNEHLIDMDHEASFFGAFLVG
notes: also called FT
- binding result: binds
